Data reported in article PMC4336329 (PLoS ONE, 2015).
Screen size: about 310,000 compounds; about 2,200 (0.71%) showed an effect of 50% or more. The effect is printed as a negative number. The list shows a part of the results.

biological target: human ether-à-go-go-related gene (hERG) potassium channel (human, UniProt Q12809); experiment: primary screen, population patch clamp on CHO cells stably expressing hERG
Sequence (Q12809 whole entry, looked up): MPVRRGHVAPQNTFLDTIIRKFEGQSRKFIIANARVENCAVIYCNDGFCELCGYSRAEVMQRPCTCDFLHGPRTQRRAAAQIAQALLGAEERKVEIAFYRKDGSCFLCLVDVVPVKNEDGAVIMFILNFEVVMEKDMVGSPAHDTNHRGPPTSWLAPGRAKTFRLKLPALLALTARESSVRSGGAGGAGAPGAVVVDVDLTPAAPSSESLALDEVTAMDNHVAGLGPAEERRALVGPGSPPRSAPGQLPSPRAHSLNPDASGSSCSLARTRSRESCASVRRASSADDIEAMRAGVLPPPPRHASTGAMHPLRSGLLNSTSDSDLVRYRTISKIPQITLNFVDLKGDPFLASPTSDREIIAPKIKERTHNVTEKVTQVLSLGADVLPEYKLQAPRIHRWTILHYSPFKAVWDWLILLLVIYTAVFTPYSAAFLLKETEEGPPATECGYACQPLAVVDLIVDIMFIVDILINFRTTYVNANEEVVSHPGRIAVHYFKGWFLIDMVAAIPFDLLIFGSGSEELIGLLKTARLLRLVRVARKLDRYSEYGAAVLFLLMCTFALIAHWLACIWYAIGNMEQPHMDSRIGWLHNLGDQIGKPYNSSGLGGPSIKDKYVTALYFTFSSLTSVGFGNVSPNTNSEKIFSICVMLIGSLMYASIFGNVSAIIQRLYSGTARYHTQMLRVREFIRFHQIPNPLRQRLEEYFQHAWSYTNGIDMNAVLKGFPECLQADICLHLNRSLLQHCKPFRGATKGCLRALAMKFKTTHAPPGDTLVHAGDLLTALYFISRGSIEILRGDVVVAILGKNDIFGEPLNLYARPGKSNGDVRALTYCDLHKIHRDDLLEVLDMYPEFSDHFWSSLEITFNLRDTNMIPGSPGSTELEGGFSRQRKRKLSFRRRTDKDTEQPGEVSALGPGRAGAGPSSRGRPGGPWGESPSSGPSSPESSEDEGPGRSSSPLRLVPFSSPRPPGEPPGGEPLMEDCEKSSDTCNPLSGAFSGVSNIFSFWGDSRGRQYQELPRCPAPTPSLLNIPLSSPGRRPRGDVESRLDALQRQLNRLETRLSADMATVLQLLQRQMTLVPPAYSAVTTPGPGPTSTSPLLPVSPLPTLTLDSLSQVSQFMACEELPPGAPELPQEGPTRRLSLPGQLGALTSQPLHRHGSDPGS

SMILES	hERG current change (%, negative = inhibition) at 1uM
Cc1onc(-c2ccccc2)c1C(=O)N/N=C/c1cccs1	14.2%
CCc1cc(C(=O)NNC(=S)Nc2cc(C)ccc2C)cs1	-2.24%
CCCC1=[N+](CC)CCn2c(C)ccc21.[Br-]	12.8%
Cc1cnc(C(=O)OC(C)C(=O)Nc2ccc3c(c2)OCCO3)cn1 (stereo not drawn)	13.7%
Cc1cc2c(Nc3ccc(C(=O)O)cc3)ncnc2s1.Cl	23.6%
CCCCN(Cc1cc2ccccc2[nH]c1=O)C(=O)c1ccccn1	17.2%
Cc1c(CC(=O)N2CCN(C(=O)C3COc4ccccc4O3)CC2)c(=O)oc2c(O)c(O)ccc12 (stereo not drawn)	9.48%
CC(=O)Oc1ccc(C(=O)[C@H]2[C@H]3C(=O)N(c4ccc(C)cc4)C(=O)[C@H]3[C@@H]3C=CC=NN32)cc1	13.8%
COc1ccc(C(=O)NCC(=O)NCCc2c[nH]c3ccccc23)cc1OC	-5.32%
CC(C)Cn1c(SCC(=O)N2CC(=O)Nc3ccccc32)nc2ccccc21	6.57%
CN1C2CCC1/C(=C/c1ccccn1)C(=O)/C2=C\c1ccccn1	2.53%
Cc1ccc(OCCNC(=O)c2ccc3c(c2)OCO3)cc1	11.2%
COc1ccc(S(=O)(=O)N2CC3CC(C2)c2cccc(=O)n2C3)cc1 (stereo not drawn)	9.01%
Cc1ccc(C)c(NC(=S)NCc2ccc3[nH]c4c(c3c2)CCCC4)c1	11.4%
CCOC(=O)C1C(=O)CC(C)(O)C(C(=O)OCC)C1c1cc(Br)ccc1OC (stereo not drawn)	10.7%
O=C(NC(Cc1c[nH]c2ccccc12)C(=O)O)c1cccs1 (stereo not drawn)	12.1%
O=C(NCCOc1ccccc1)C(=O)c1c[nH]c2ccccc12	3.44%
Cc1cc(=O)oc2c(C)c3occc3cc12	16.3%
Cc1noc(C)c1C(=O)N(CC(=O)Nc1ccccc1Br)Cc1ccco1	2.06%
Cn1nnnc1SCC(=O)NC(=O)NCc1ccccc1	11.8%
CC(=O)OC(C(=O)NC1CCCCC1)c1ccc(C)cc1 (stereo not drawn)	10.9%
CCN(CC)c1ccc(NC(=O)Nc2cccc(C(C)=O)c2)cc1	13.2%
O=C1CC[C@@H](O)CCN1CC[C@H](Sc1ccc(Br)cc1)c1ccccc1	3.73%

SMILES	hERG current change (%, negative = inhibition) at 1uM
CN(C)C(=O)CN1C(=O)NC(c2ccccc2)(c2ccccc2)C1=O	5.02%
CCC(=O)c1ccc(N2CCN(C(=O)c3ccccc3Br)CC2)c(F)c1	-0.036%
CCC1CCCCN1CCNC(=O)C1CCN(S(=O)(=O)c2c(C)noc2C)CC1 (stereo not drawn)	8.34%
CC(C)c1ccc2c(c1)C(=O)NC(C)(C)C2	2.08%
O=C(O)C1(c2ccccc2)CCN(S(=O)(=O)c2cccc(Cl)c2)CC1	12.3%
O=C(CN1CCN(Cc2cccc(Cl)c2)C1=O)N1CCC2(CC1)OCCO2	12.7%
COc1ccc(C(=O)O/N=C(\N)Cc2ccc(Cl)cc2Cl)cc1OC	12%
Cc1nc(NC(=O)CSc2nnc(C)n2CC2CCCO2)sc1C (stereo not drawn)	-0.227%
Cc1oc2cc3oc(=O)c(CC(=O)O)c(C)c3cc2c1-c1ccccc1	15.3%
O=c1ncn(-c2ccccc2F)c2ncccc12	-2.27%
COc1cccc(C2SCC(=O)N2c2cccc(C)c2)c1OC (stereo not drawn)	2.47%
CC1=C/C(=C/N(C)c2ccccc2)C(=O)S1	-1.19%
Cn1ncc(N=Cc2ccccc2)c1C(=O)Nc1cccc(Cl)c1	12.6%
COc1cc(C2OCC3C(c4cc(OC)c(OC)c(OC)c4)OCC23)cc(OC)c1OC (stereo not drawn)	11.8%
O=C(N/N=C/c1ccc(N2CCOCC2)cc1)c1ccc(NS(=O)(=O)c2cccs2)cc1	10.6%
Br.O=C(CNc1ccc(F)cc1)c1ccccc1	14.6%
CN1CCN(NC(=O)c2cc(S(=O)(=O)Nc3ccc(Cl)cc3)ccc2Cl)CC1.Cl	10.3%
Cc1ccc(Cl)cc1NC(=O)N[C@@H](C)C(=O)O	9.9%
COc1cc(/C=N/NC(=O)c2ccc(NC(=O)C3CC3)cc2)ccc1OC(C)=O	5.98%
COc1cccc(/C=C2\SC(=O)N(CCC(=O)N3CCC(C(=O)O)CC3)C2=O)c1	9.22%
Cc1cccc(NC(=S)NC(=O)c2ccc(Br)o2)c1	12.7%
CCCNS(=O)(=O)c1ccc(OCC(=O)N2CCCC2)cc1	11.7%
CCOc1ccccc1OCCNC1CCCC1	9.35%

SMILES	hERG current change (%, negative = inhibition) at 1uM
COc1ccc(CCNS(=O)(=O)c2cccc([N+](=O)[O-])c2)cc1	-2.95%
CCCC(c1nnnn1C1CCCC1)N1CCN(c2ccccc2F)CC1.Cl (stereo not drawn)	1.94%
CSc1ccccc1OCc1cc(C(=O)NC2CCOC(C)(C)C2)no1 (stereo not drawn)	11.9%
O=C(Nc1nccs1)c1ccc(Cl)c(S(=O)(=O)N2CCCCC2)c1	6.8%
COc1ccc(C(=O)NCc2cc(C)nc3ccccc23)cc1OC	13.1%
Cc1ccccc1OCC(=O)NS(=O)(=O)c1ccc(Cl)cc1	12.3%
CC(=O)Nc1cccc(OCCCOc2ccc([N+](=O)[O-])cc2)c1	11.1%
O=C(Nc1cccc(F)c1)c1ccco1	14.1%
CCOCN(C(=O)Cn1c(C(C)O)nc2ccccc21)c1c(C)cccc1CC (stereo not drawn)	10.7%
CCCCNc1nc2c(c(=O)n(Cc3ccccc3)c(=O)n2C)n1C	14.5%
Cc1ccc(NS(=O)(=O)c2ccc(Cl)c(C(=O)O)c2)cc1S(=O)(=O)N1CCOCC1	9.78%
CCCOC(=O)c1ccc(NC(=O)CCOc2ccccc2)cc1	-0.614%
O=C(NC1=NCCS1)c1sc2ccccc2c1Cl	11.8%
O=c1[nH]c(/C=C/c2ccccc2F)nc2ccccc12	12.4%
Cc1ccc(C(=O)N/C(=C\c2cccs2)C(=O)NCCCn2ccnc2)cc1C	-32.3%
Cc1ccc2c(c1)CCCN2C(=O)c1ccncc1	8.11%
S=c1[nH]nc(CCCc2n[nH]c(=S)o2)o1	12.5%
O=C(Cc1noc2ccccc12)Nc1ccc2ccccc2c1	10.9%
COc1ccc(NC(=O)COC(=O)c2c(-c3ccccc3)noc2C)cc1	0.158%
O=S(=O)(N1CCCCC1)N1CCN(c2cc(Cl)ccc2Cl)CC1	15.6%
COc1cc2sc3ccc(C#Cc4ccccn4)cc3c(=O)c2cc1OC	8.36%
COc1ccc([C@H]2CC(=O)C=C(c3cccc(C(F)(F)F)c3)C2)cc1	14.9%
O=C(NC12CC3CC(CC(C3)C1)C2)c1cc2nc(-c3ccco3)cc(C(F)(F)F)n2n1	6.67%

SMILES	hERG current change (%, negative = inhibition) at 1uM
COc1ccc(C2=Nc3cc(C)ccc3OC2)cc1	18%
COC(=O)Nc1ccc(C)c2nsnc12	-0.405%
Cc1nc2sc(C(c3cccs3)N3CCN(c4cccc(Cl)c4)CC3)c(O)n2n1 (stereo not drawn)	4.26%
Cc1c(NC(=O)C(C)Sc2nc(N)cc(=O)[nH]2)c(=O)n(-c2ccccc2)n1C (stereo not drawn)	14.5%
N#C/C(=C/c1ccc2c(c1)OCO2)C(=O)Nc1ccc(O)cc1	5.9%
CC1=C(C(=O)OCc2ccccc2)C(c2ccc3ccccc3c2)NC(=O)N1CCCCCC(=O)O (stereo not drawn)	17.2%
CS(=O)(=O)Nc1ccc(C2=NN(S(=O)(=O)c3ccc(F)cc3)C(c3ccco3)C2)cc1 (stereo not drawn)	-15.6%
CCN(c1ccc(NC(=O)COC(=O)c2cc3ccccc3oc2=O)cc1)C(C)C	6.56%
CC(OC(=O)c1cccc(NS(C)(=O)=O)c1)C(=O)Nc1ccc(N2CCOCC2)cc1 (stereo not drawn)	11.9%
CCSc1nnc(NC(=O)c2ccccc2C)s1	8.78%
CSc1nnc(Cn2c(=O)sc3ccccc32)n1-c1ccccc1C	11.8%
CC(=O)CCc1ccc(OC(=O)c2cccnc2)cc1	14.5%
COCCn1c(SCC(=O)c2ccccc2)nc2ccccc2c1=O	-0.334%
COC(=O)c1ccc(COC(=O)CCC(=O)c2cccs2)cc1	-7.81%
C=CCn1c(=O)c(C=Nc2c(OC)cccc2[N+](=O)[O-])c(O)n(CCCC)c1=O	-7.14%
COc1ccc(C(CNC(=O)c2oc3ccc(Br)cc3c2C)N2CCCCC2)cc1 (stereo not drawn)	10.6%
COc1cc(NC(=O)CSc2nc(C)c(C)c(C)n2)cc(OC)c1	11.8%
Cn1cc(/C=C(\NC(=O)c2ccccc2Cl)C(=O)N2CCOCC2)c2ccccc21	16%
CCOC(=O)c1c(NC(=O)CSc2nnc(-c3cccnc3)o2)sc2c1CCC2	0.0604%
O=C1/C(=C/c2ccccc2[N+](=O)[O-])COc2ccccc21	11.1%
COc1cc(C(=S)NCc2ccccc2)cc(Br)c1O	9.88%
